Data reported in PubChem BioAssay AID1745853 (National Center for Advancing Translational Sciences (NCATS), 2022).
“And” between values parts separate entries of the source, which are not always exact repeats. Equal entries are not always repeated. Some of the results follow. Further columns of the screen follow, without active or inactive calls.

Legend:
Assay in all cases: Primary Screen for Target Class Profiling of Small Molecule Inhibitors of Methyltransferases
[1] = target: Glycine N-methyltransferase (Homo sapiens) (UniProt Q14749); settings: purified enzyme, MTase-Glo SAH luminescence; measured here: GNMT inhibition; at 40 µM; stronger effect = lower value
How it was run: (§1)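 Each enzyme was reacted with SAM and its substrate, with compounds tested once at 40 uM; SAH formed was read by MTase-Glo luminescence.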

[2] = target: Guanidinoacetate N-methyltransferase (Homo sapiens) (UniProt Q14353); settings: purified enzyme, MTase-Glo SAH luminescence; measured here: GAMT inhibition; at 40 µM; stronger effect = lower value
How it was run: as §1

[3] = target: Histamine N-methyltransferase (Homo sapiens) (UniProt P50135); settings: purified enzyme, MTase-Glo SAH luminescence; measured here: HNMT inhibition; at 40 µM; stronger effect = lower value
How it was run: as §1

[4] = target: Nicotinamide N-methyltransferase (Homo sapiens) (UniProt P40261); settings: purified enzyme, MTase-Glo SAH luminescence; measured here: NNMT inhibition; at 40 µM; stronger effect = lower value
How it was run: as §1

[5] = target: Phenylethanolamine N-methyltransferase (Homo sapiens) (UniProt P11086); settings: purified enzyme, MTase-Glo SAH luminescence; measured here: PNMT inhibition; at 40 µM; stronger effect = lower value
How it was run: as §1
% is scaled to controls: 0 for no effect and ±100 for the full control effect.

SMILES | activity change, negative = inhibition [1] | activity change, negative = inhibition [2] | activity change, negative = inhibition [3] | activity change, negative = inhibition [4] | activity change, negative = inhibition [5]
CC(C)NCC(O)COc1cccc2[nH]ccc12 (stereo not given) | 0.639% and -5.8% | 4.9% and 2.5% | 8.36% and 2.86% | -4.42% and -8.91% | 3.56% and 5.66%
Cc1ccc(Cn2nc3n(Cc4ccccc4)c(=O)c4ccc(C(=O)NCC(C)C)cc4n3c2=O)cc1 | 0.739% | 1.17% | 4.79% | -0.719% | -0.846%
Cc1ccc(Nc2ccn3c(=O)n(CC(=O)Nc4ccc(C)cc4C)nc3n2)cc1 | 11.3% | 0% | 6.46% | 1.13% | 2.15%
CCC(C)NC(=O)c1ccc2c(=O)n(CC(C)C)c3nn(C)c(=O)n3c2c1 (stereo not given) | -1.69% | -4.7% | 0.493% | -6.08% | -6.12%
Cc1ccc(N2C(=O)c3cc4sccc4n3CC2(C)C(=O)NC2CCCCC2C)c(C)c1 (stereo not given) | 2.77% | 0% | 5.67% | 0.582% | -0.335%
COc1ccc(CNC(=O)c2cc3n(n2)CC(C)(C(=O)NC2CCCCC2)N(C)C3=O)cc1OC (stereo not given) | 3.01% | 1.99% | -5.19% | -0.993% | -3.7%
COc1ccc(NS(=O)(=O)c2cc3c(cc2Cl)n(C)c(=O)n3C)c(OC)c1 | 12.4% | 1.14% | 2.11% | 4.1% | 8.94%
O=C(CSc1nnc2[nH]c(=O)c(-c3ccc(Cl)cc3)nn12)Nc1cccc(F)c1 | 3.31% | 0% | 4.38% | -3.61% | -1.62%
Clc1ccccc1C1Nc2ccc(Br)cc2C2C=CCC21 (stereo not given) | -11% | -2.18% | -7.25% | -7.8% | -13.4%
Cc1cc(C)n2nc(C)c(C(=O)N3CCCC(c4cccc(C(=O)O)c4)C3)c2n1 (stereo not given) | -2.94% | -2.28% | 1.67% | -10.2% | -0.248%
C=CCn1c(=O)c2ccc(C(=O)NCC(C)C)cc2n2c(=O)n(CC(=O)NC(C)CC)nc12 (stereo not given) | 5.83% | 0% | 9.37% | 5.97% | 4.34%
COc1ccc(CC(=O)N2CCC3(CC2)C(=O)NCN3C(=O)C2CCCC2)cc1 | -1.28% | -2.12% | -0.162% | -3.23% | -2.6%
CC(C)Cn1c(=O)c2ccccc2n2c(CCC(=O)Nc3cccc(Cl)c3)nnc12 | -6.54% | 0% | -3.07% | -22.1% | -7.95%
O=C1CN(Cc2cccc(Cl)c2)S(=O)(=O)c2ccccc2N1Cc1cccc(F)c1 | 16% | 0.297% | 10.5% | -0.012% | 4.63%
CCC(C)NC(=O)CSc1nnc2n(CCc3ccccc3)c(=O)c3ccccc3n12 (stereo not given) | 0.566% | 4.21% | 7.79% | -5.86% | 0.607%
CCN1CCN(CCNC(=O)c2cc3n(n2)CC(C)(C(=O)NCc2ccc(F)cc2)N(C)C3=O)CC1 (stereo not given) | 3.23% | -3.55% | -4.41% | -2.35% | -2.04%
COc1ccc(-c2nnc(-c3ccccc3)o2)cc1S(=O)(=O)N1CCCc2ccccc21 | 4.19% | 2.24% | 2.43% | -1.16% | 4.47%
COc1ccccc1-c1cn2c(n1)CO[C@@H](CNC1CCOCC1)C2 | -4.94% | -4.04% | -15.1% | -9.24% | -4.49%
COCCCN1C(=O)c2ccc(-c3ccccc3)n2CC1(C)C(=O)NC1CCCCCC1 (stereo not given) | 1.19% | 3.24% | -1.98% | -5.02% | -0.908%
COC(=O)CNC(=O)c1nc(-c2ccc(Cl)nc2)c2ccccn12 | -14.8% | -4.23% | -4.06% | -15.6% | -9.5%
C[C@H](O)[C@H](O)[C@H]1CNc2nc(N)[nH]c(=O)c2N1 | -1.22% | -6.97% | 5.27% | -13.5% | -1.41%
O=C(Cn1ccc2cc(S(=O)(=O)N3CCCC3)ccc21)NCc1ccc(F)cc1 | 0.999% | -0.082% | -1.51% | -4.08% | -3.89%
COc1cccc(-c2nnc3n(Cc4ccccc4)c(=O)c4ccccc4n23)c1OC | 5.79% | 3.01% | 6.45% | 12.5% | 2.53%
O=C(CCn1ccc2cc(S(=O)(=O)N3CCCCC3)ccc21)NCCc1cccs1 | 5.48% | 1.06% | 3.09% | 4.27% | 1.83%
COc1ccc(N2C(=O)c3cc4ccc(OC)cc4n3CC2(C)C(=O)NC2CCCCC2)cc1 (stereo not given) | 2.47% | 0.35% | 5.38% | 7.54% | 2.2%
COc1cc(F)c(C(C)C)cc1-c1ccc(C(F)(F)F)cc1CN1C(=O)OC(c2cc(C(F)(F)F)cc(C(F)(F)F)c2)C1C (stereo not given) | 1.75% | -10.5% | 9.52% | -34.2% | -3.78%
COc1ccc(CCCN2C(=O)O[C@@H]3CN(S(=O)(=O)N(C)C)C[C@@H]32)cc1 | 0.81% | 2.29% | 3.9% | 0.098% | 2.94%
CCS(=O)(=O)N1CCN(c2ccc(Nc3ncc(C(N)=O)c(NC4CC4)n3)cc2)CC1 | -16.8% and -7.07% | 2.42% | 4.45% and 2.62% | -127% and -87.1% | -14.3% and -5.48%
CC(CC(C)O[C@@H]1O[C@H](CO)[C@@H](O)[C@H](O)[C@H]1O)OC(=O)/C=C/c1ccc(O)cc1 (stereo not given in full) | 3.94% | 5.09% | 2.62% | -6.13% | 6.08%
COc1ccc(-c2onc(C)c2C(=O)NCCCCc2ccccc2)cc1 | -2.19% | -0.084% | 1.14% | -6.12% | -1.91%
